Experimental data from the supplement of paper PMC10369915.
This is one part of the list. Cut-off read from the data, not from the text of the source: active = 3.2 or more and inactive = the rest. The signal is at background level for most entries.

B1: LEF1_Y114_G113R (peptide)
chain: SSYSRYIMMPN
B2: LAMA2_Y1258_A1261V_YF (peptide)
chain: LKFAIYFEVRE
B3: LDHB_Y173_F171V (peptide)
chain: SARVRYLMAEK
B4: L2HGDH_Y103_H98R_YF (peptide)
chain: RSGIFYKPESL
B5: LAMA3_Y791 (peptide)
chain: RVILRYVNPGT
B6: LACTB_Y473 (peptide)
chain: ERKQTYGSCRK
B7: L2HGDH_Y102_H98R (peptide)
chain: IRSGIYYKPES
B8: LCT_Y974_V971L (peptide)
chain: LKLKAYRFSIS
B9: L2HGDH_Y102 (peptide)
chain: IHSGIYYKPES
B10: LAMA2_Y1258_A1261V (peptide)
chain: LKYAIYFEVRE
B11: LCTL_Y331_L326F (peptide)
chain: FQEKSYIKGTS
B12: LEMD3_Y258 (peptide)
chain: SCRENYSDSEE
B13: LBR_Y166_R169C (peptide)
chain: YIATQYSLCPR
B14: LDLR_Y828 (peptide)
chain: FDNPVYQKTTE
B15: LDHB_Y173_M175V (peptide)
chain: SARFRYLVAEK
B16: LARP4_Y141_S137P (peptide)
chain: LPKDLYLISQM
B17: L2HGDH_Y102_H98Y (peptide)
chain: IYSGIYYKPES
B18: LDLR_Y828_P826S (peptide)
chain: FDNSVYQKTTE
B19: LDHB_Y128_S129R (peptide)
chain: PQIVKYRPDCI

What follows are binders tested against SHP2 C-SH2 domain E139D (assay: enrichment score (SH2-bound / input frequency) (ratio); bacterial display of known human phosphotyrosine sites (pTyr-Var adds point mutants) read by sequencing; higher = stronger binding; tyrosines were phosphorylated by kinases first). Conditions: peptide library: pTyr-Var.
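Note: displayed peptides selected on beads carrying the immobilized SH2 domain, with library peptides lacking any tyrosine serving as negative controls.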

Enrichment score, inactive:
B1 0.784
B2 0.444
B3 1.82
B4 1.13
B5 1.41
B6 1.48
B7 0.903
B8 0.868
B9 1.4
B10 2.29
B11 0.862
B12 0.415
B13 0.523
B14 0.874
B15 0.722
B16 1.6
B17 1.44
B18 0.649
B19 1.28

Each binder was assayed against SHP2 C-SH2 domain wild-type in the same assay as above. Conditions: peptide library: pTyr-Var.

Enrichment score, inactive:
B1 1.28
B2 0.876
B3 1.07
B4 1.04
B5 0.966
B6 1.24
B7 0.702
B8 0.587
B9 1.06
B10 2.06
B11 1.03
B12 0.453
B13 0.662
B14 1.09
B15 0.521
B16 1.79
B17 1.29
B18 0.575
B19 1.7

Each binder was assayed against SHP2 N-SH2 domain L43F in the same assay as above. Conditions: peptide library: pTyr-Var.

Enrichment score, inactive:
B1 0.639
B2 0.536
B3 1.39
B4 1.88
B5 1.11
B6 1.04
B7 1.06
B8 0.738
B9 1.16
B10 2.46
B11 0.906
B12 0.532
B13 0.676
B14 1.01
B15 0.737
B16 2.03
B17 1.44
B18 0.596
B19 2.05

The binders below were run against SHP2 N-SH2 domain T42A in the same assay as above. Conditions: peptide library: pTyr-Var.

Enrichment score, inactive:
B1 0.777
B2 0.605
B3 1.23
B4 1.25
B5 1.26
B6 1.15
B7 0.81
B8 0.669
B9 1.28
B10 2.13
B11 0.742
B12 0.522
B13 0.643
B14 0.924
B15 0.663
B16 1.71
B17 1.63
B18 0.529
B19 1.59

What follows are binders tested against SHP2 N-SH2 domain T52S in the same assay as above. Conditions: peptide library: pTyr-Var.

Enrichment score, inactive:
B1 0.605
B2 0.492
B3 1.38
B4 1.29
B5 1.28
B6 1.23
B7 0.885
B8 0.936
B9 1.47
B10 1.56
B11 0.609
B12 0.61
B13 0.545
B14 0.782
B15 0.673
B16 1.72
B17 1.75
B18 0.547
B19 2.31

Each binder was assayed against SHP2 N-SH2 domain wild-type in the same assay as above. Conditions: peptide library: pTyr-Var.

Enrichment score, inactive:
B1 0.596
B2 0.793
B3 1.28
B4 1.37
B5 1.69
B6 1.13
B7 0.851
B8 0.959
B9 1.21
B10 2.12
B11 1.02
B12 0.48
B13 0.754
B14 1.32
B15 0.633
B16 1.02
B17 1.15
B18 0.736
B19 1.69
